Out of some 360,000 compounds screened, about 740 (0.21%) were called active. Inconclusive means that the source gave no clear call. Such entries were picked first, then a sample of the others. The call rests on the fitted dose curve; in most records, active means well fitted inhibition curve with a large enough effect; inconclusive means small, poorly fitted or top-dose-only effect; inactive means no such curve, though single readings can be large or run the other way. Potencies of inconclusive entries are left out as doubtful fits.
system: Plasmodium falciparum AMA1 (3D7) - RON2 peptide interaction; assay: qHTS for Inhibitors of AMA1-RON; Towards Development of Antimalarial Drug Lead: Primary Screen; conditions: AlphaScreen AMA1-biotinylated RON2 peptide binding; activity change, negative = inhibition: at 58.2 µM (top of the series) unless noted; further: nearly all actives have a fitted effect of over 45% in size;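 on activity change, negative = inhibition: 0% = vehicle wells and -100% = peptide control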
Summary of the method: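 AMA1 (3D7) with his tag at 25 nM final met compounds first, then biotinylated RON2 peptide at 25 nM; detection used donor plus acceptor beads, 10 µg/mL apiece, read by AlphaScreen after 30 min at room temperature.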
Potency means the concentration at half of the fitted maximal effect; tags describe the fitted curve by direction and shape.

Row | SMILES | Potency | activity change, negative = inhibition
1 | c1ccc(COc2ccc(OCCN3CCCC3)cc2)cc1 | inconclusive [inhibitor, partial curve, poor fit] | 
2 | COc1ccc(C(=O)NCC(=O)OCC(=O)NCc2ccc3c(c2)OCO3)cc1 | inconclusive [inhibitor, full curve, poor fit] | 
3 | COC(=O)c1ccc(CNC(=O)COc2ccccc2Br)o1 | inconclusive [inhibitor, full curve] | 
4 | CC(C)Cc1nc2oc3c(NCC4CCCO4)ncnc3c2c2c1CCC2 (configuration not stated) | inactive | 
5 | O=[N+]([O-])c1ccc(Oc2ccc(S(=O)(=O)N3CCCCC3)cc2)cc1 | inactive | 
6 | Cc1ccc(S(=O)(=O)NCC2(c3ccccc3)CCN(C)CC2)cc1 | inactive | 
7 | NC(=O)[C@@H]1CCCNc2c(I)cc([N+](=O)[O-])cc2C(=O)N[C@@H](Cc2ccccc2)C(=O)N[C@@H](Cc2cnc[nH]2)C(=O)N1 | inconclusive [inhibitor, single point] | 
8 | COc1cccc(-c2cc(C(=O)NCc3cccs3)no2)c1 | inactive | 
9 | O=C(CCCSc1ccccc1)Nc1ccc(Cl)c(S(=O)(=O)N2CCOCC2)c1 | inactive | 
10 | CCOc1ccc2[nH]c3c(N4CCc5ccccc5C4)ncnc3c2c1 | inconclusive [inhibitor, single point] | 
11 | CC1(C)C2CCC1(C)C(OCCNCCOC(=O)Nc1ccccc1)C2 (configuration not stated) | inactive | 
12 | CN(Cc1ccccc1)c1nc(N)c([N+](=O)[O-])c(NCc2ccccc2)n1 | inconclusive [inhibitor, full curve, poor fit] | 
13 | NC(=O)CN1CCOCCOCCN(CC(N)=O)CCOCCOCC1 | inactive | 
14 | Nc1c(Br)cc(Br)c2c1C(=O)c1c(cccc1S(=O)(=O)O)C2=O | inconclusive [inhibitor, single point] | 
15 | CCCCn1nnnc1C(c1cc2ccccc2o1)N1CCN(C/C=C/c2ccccc2)CC1 (configuration not stated) | inconclusive [inhibitor, partial curve] | 
16 | CN1CCc2c(sc(/N=C/c3c[nH]c4ccccc34)c2C(N)=O)C1 | inactive | 
17 | Brc1ccc(Oc2nsnc2N2CCOCC2)cc1 | inconclusive [inhibitor, partial curve] | 
18 | COc1ccccc1N1CCN(/N=C/C(Cl)=C/c2ccccc2)CC1 | inconclusive [inhibitor, full curve, poor fit] | 
19 | COc1cc(Cn2c3ccc(NC(=O)CCc4ccc(O)cc4)cc3c(=O)n2C)ccc1F | inactive | 
20 | CCC(=O)NC(=S)Nc1ccc(N2CCN(C(=O)c3ccc(Cl)cc3)CC2)cc1 | inconclusive [inhibitor, single point] | 
21 | CCCOC(=O)C1=C(C)N(C)C(=O)NC1c1cc2c(cc1[N+](=O)[O-])OCO2 (configuration not stated) | inconclusive [inhibitor, full curve, poor fit] | 
22 | Cc1ccc(C2CC(=O)N3CN(Cc4ccco4)CSC3=C2C#N)cc1 (configuration not stated) | inactive | 
23 | CC(=O)c1sc(NC(=O)CCS(=O)(=O)c2ccccc2)nc1C | inactive | 
24 | Cc1cc(NC(=O)C(C)SCC(=O)Nc2ccccc2OC(F)F)no1 (configuration not stated) | inconclusive [inhibitor, single point] | 

Row | SMILES | Potency | activity change, negative = inhibition
25 | CCc1nc2ccc(C(=O)N(C)Cc3ccco3)cn2c1N(C)CCCc1ccccc1 | inconclusive [inhibitor, single point] | 
26 | Cn1cccc1C(=O)OCC(=O)c1cc2ccccc2o1 | inactive | 
27 | O=C(OC(C(=O)NCC1CCCO1)c1ccccc1F)c1ccco1 (configuration not stated) |  | inconclusive: -0.439% [inhibitor]
28 | OC[C@@H]1CN(Cc2ccc(Cl)cc2)C[C@H](n2cnc3c(N4CCOCC4)ncnc32)O1 | inactive | 
29 | O=C(Nc1ccc2c(c1)OCO2)c1cn(Cc2ccc(F)cc2)nn1 | inactive | 
30 | Cc1cccc(OCc2nnc(SCC(=O)NC3CCCC3)n2C)c1 | inactive | 
31 | Nc1ccc(C23CC4CC(CC(CO)(C4)C2)C3)cc1 | inactive | 
32 | CCN1/C(=C/C=C/c2oc3ccc4ccccc4c3[n+]2CC)Oc2ccc3ccccc3c21 | inconclusive [inhibitor, full curve] | 
33 | CCNC(=S)N/N=C/c1ccc(-c2ccccc2)o1 | inactive | 
34 | CC[C@H](CO)Oc1cc(NCc2ccc(Cl)c(Cl)c2)c2ncn(C(C)C)c2c1 | inconclusive [inhibitor, full curve] | 
35 | COc1cccc(N2CCN(S(=O)(=O)c3cc4c(cc3C)N(C)CCO4)CC2)c1 | inconclusive [inhibitor, partial curve] | 
36 | CN(C)c1ccc(-c2ccnc3c2CC(C)(C(=O)NCCc2ccccc2)O3)cc1 (configuration not stated) | inconclusive [inhibitor, partial curve] | 
37 | COc1cccc(Oc2cc(NN3CCCCC3)c([N+](=O)[O-])cc2[N+](=O)[O-])c1OC | inconclusive [inhibitor, single point] | 
38 | OC(CN1CCCC1)Cn1ccc2ccccc21 (configuration not stated) | inconclusive [inhibitor, partial curve] | 
39 | Cc1nc2ccc([N+](=O)[O-])cc2c(=O)n1Cc1ccccc1Br | inconclusive [inhibitor, partial curve, poor fit] | 
40 | Cc1ccc2cc(CCl)c(Cl)nc2c1 | inconclusive [inhibitor, full curve, poor fit] | 
41 | COc1ccc(N2CCN(C(=O)c3cc4c(-c5cccc(OC)c5)nn(C)c4s3)CC2)cc1 | inconclusive [inhibitor, partial curve] | 
42 | CCN(CC)c1ccc(NC(=O)COC(=O)Cc2ccsc2)cc1 | inconclusive [inhibitor, single point] | 
43 | O=C([C@H]1O[C@@H](n2ccc(=O)[nH]c2=O)[C@H](O)[C@@H]1O)N1CCSC1 | inactive | 
44 | Cc1ccc(/C=N/NC(=O)c2cc(C)oc2C)cc1 | inactive | 
45 | O=c1c2ccccc2cnn1-c1ccc(Cl)cc1 | inactive | 
46 | Cc1nc2c3ccccc3n(CC#N)c(=O)n2n1 | inactive | 
47 | C=CC[n+]1c(C)csc1Nc1ccc(C)cc1 | inconclusive [inhibitor, partial curve] | 
48 | COc1ccccc1/C=C/C(=O)NCC(=O)N=Nc1c(O)[nH]c2ccccc12 | inconclusive [inhibitor, partial curve, poor fit] | 

Row | SMILES | Potency | activity change, negative = inhibition
49 | Cc1ccc(C)c2[nH]c(=O)c(CN(Cc3ccc4c(c3)OCO4)Cc3nnnn3Cc3ccco3)cc12 | inactive | 
50 | COc1ccccc1CNc1nc(NCc2ccccc2SC)c2sccc2n1 | inconclusive [inhibitor, single point] | 
51 | COc1ccc(-c2ccc(C(=O)NCc3ccc(N4CCN(C)CC4)cc3)c3occc23)c(C)c1 | active: 15.8 µM | 
52 | O=C(CN1CCN(c2ccccn2)CC1)N1c2ccccc2Sc2ccc(C(F)(F)F)cc21 | inconclusive [inhibitor, partial curve] | 
53 | O=C(CSc1nc2ccccc2c(=O)n1-c1ccc(F)cc1)Nc1ccc(N2CCOCC2)cc1 | inconclusive [inhibitor, single point] | 
54 | Cn1cccc1/C=N/N1CCN(Cc2ccccc2Cl)CC1 | inconclusive [inhibitor, single point] | 
55 | O=c1[nH]c(CN2CCCCC2)ccc1O | inconclusive [inhibitor, partial curve] | 
56 | FC(F)(F)c1ccccc1CNCCc1c[nH]c2ccccc12 | inconclusive [inhibitor, single point] | 
57 | CN(c1ccccc1C(=O)Nc1cccc([N+](=O)[O-])c1)S(=O)(=O)c1ccccc1 | inactive | 
58 | NNC(=O)c1sc2nc(N3CCOCC3)c3c(c2c1N)CCCC3 | inactive | 
59 | CCCCC1=CC2=CC(=O)C(C)(OC(=O)CC)C(=O)C2=CN1c1ccc(OC)cc1 (configuration not stated) | inactive | 
60 | O=C(O)CSCC(=O)Nc1ccc(Cl)cc1C(F)(F)F | inconclusive [inhibitor, partial curve, poor fit] | 
61 | CN(C)c1cccc(C(=O)Nc2nc3ccccc3[nH]2)c1 | inconclusive [inhibitor, single point] | 
62 | COc1ccc(N2CCN(C(CNS(=O)(=O)c3cc(F)ccc3F)c3cccnc3)CC2)cc1 (configuration not stated) | inconclusive [inhibitor, single point] | 
63 | COc1cc(NCc2ccccc2)c2ncn(C(C)C)c2c1 | inconclusive [inhibitor, single point] | 
64 | COCCCNC(=S)N1CCCC(c2nc3cc(C)c(C)cc3[nH]2)C1 (configuration not stated) | inconclusive [inhibitor, single point] | 
65 | CCCn1nc([N+](=O)[O-])c(C(C#N)c2nc3ccccc3s2)c(Cl)c1=O (configuration not stated) | inconclusive [inhibitor, single point] | 
66 | Cc1ccc(-n2c(C)c(C)c3c(NCCCO)ncnc32)cc1 | inconclusive [inhibitor, single point] | 
67 | O=C(O)c1cc(Br)ccn1 | inconclusive [inhibitor, single point] | 
68 | C=CCN=c1scc(-c2ccccc2)n1/N=C/c1ccccn1 | inconclusive [inhibitor, single point] | 
69 | CC(=O)NCCNC(=O)c1ccc(NC2=NC3CS(=O)(=O)CC3S2)cc1 (configuration not stated) | inactive | 
70 | O=C(CN1CCC(C(=O)c2ccc(F)cc2)CC1)Nc1ccccc1 | inactive | 
71 | Cc1ccccc1N1CCN(C(=S)c2ccccc2)CC1 | inconclusive [inhibitor, single point] | 
72 | Cc1ccc(NCc2ccccc2O)c(C)c1 | inconclusive [inhibitor, partial curve] | 

Reference: PubChem BioAssay AID720542 (National Center for Advancing Translational Sciences (NCATS), 2013)
